# Screen size: about 310,000 compounds; about 14,000 (4.5%) showed an effect of 50% or more. The effect is printed as a negative number. Some of the results follow. Where a SMILES comes first, the peptide text is derived from it. [ ]: non-standard residue; d: D form. pGlu = O=C1CC[CH](C(=O)O)N1
# Target: human ether-à-go-go-related gene (hERG) potassium channel (human, UniProt Q12809)
# Experiment: primary screen, population patch clamp on CHO cells stably expressing hERG
# 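Also: peak tail current of the secondary pulse compared with the same well before compound.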
# Sequence of human ether-à-go-go-related gene (hERG) potassium channel (Q12809 whole entry, looked up): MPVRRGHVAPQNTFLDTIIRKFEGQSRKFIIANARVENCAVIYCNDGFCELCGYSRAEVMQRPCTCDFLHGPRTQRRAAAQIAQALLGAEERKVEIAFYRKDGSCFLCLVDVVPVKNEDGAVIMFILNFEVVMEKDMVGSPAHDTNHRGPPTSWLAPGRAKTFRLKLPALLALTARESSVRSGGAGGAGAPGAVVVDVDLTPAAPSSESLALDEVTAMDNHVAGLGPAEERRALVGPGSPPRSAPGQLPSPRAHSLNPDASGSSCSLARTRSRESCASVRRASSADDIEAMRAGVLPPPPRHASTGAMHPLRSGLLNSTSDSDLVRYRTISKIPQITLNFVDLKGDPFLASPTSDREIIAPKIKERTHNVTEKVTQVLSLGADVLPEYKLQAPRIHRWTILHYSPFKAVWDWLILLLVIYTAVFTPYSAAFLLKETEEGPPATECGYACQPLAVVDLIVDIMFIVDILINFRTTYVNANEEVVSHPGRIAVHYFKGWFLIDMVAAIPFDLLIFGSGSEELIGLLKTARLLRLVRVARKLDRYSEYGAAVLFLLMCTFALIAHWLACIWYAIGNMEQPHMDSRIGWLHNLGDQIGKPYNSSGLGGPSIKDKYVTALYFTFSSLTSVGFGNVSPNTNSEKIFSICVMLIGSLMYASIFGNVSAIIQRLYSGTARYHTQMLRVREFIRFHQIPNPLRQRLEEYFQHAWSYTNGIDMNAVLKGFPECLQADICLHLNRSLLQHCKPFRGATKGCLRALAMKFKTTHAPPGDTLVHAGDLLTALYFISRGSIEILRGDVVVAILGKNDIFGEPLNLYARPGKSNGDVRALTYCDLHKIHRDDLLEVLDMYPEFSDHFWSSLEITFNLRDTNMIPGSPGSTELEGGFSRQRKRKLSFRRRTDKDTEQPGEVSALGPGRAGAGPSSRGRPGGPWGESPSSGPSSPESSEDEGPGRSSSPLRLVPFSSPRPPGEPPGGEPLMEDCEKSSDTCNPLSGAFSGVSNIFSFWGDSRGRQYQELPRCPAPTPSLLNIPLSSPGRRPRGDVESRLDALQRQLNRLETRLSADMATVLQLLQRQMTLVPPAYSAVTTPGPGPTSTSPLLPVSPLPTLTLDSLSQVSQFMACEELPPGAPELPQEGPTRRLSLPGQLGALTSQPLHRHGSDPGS
row,Compound,"hERG current change (%, negative = inhibition) at 10uM"
1,COc1ccc(OC)c(CC(=O)Nc2ccc3c(c2)CCC3)c1,23.2%
2,CCC(=O)Nc1ccccc1C(=O)N1CCOCC1,17.2%
3,CC(=Nc1c(C)n(C)n(-c2ccccc2)c1=O)c1c(O)n(Cc2ccccc2)c(=O)[nH]c1=O,14.6%
4,O=S1(=O)CCC(N=Cc2cc(Br)ccc2O)C1 (stereo not drawn),-1.41%
5,CCc1cc(=O)oc2cc(OCC(=O)NCCN3CCOCC3)c(Cl)cc12,13.3%
6,Cc1c(C(=O)OCC(=O)N2CCCC2=O)oc2ccccc12,12.4%
7,CCN(CC)c1ccc(NC(=O)c2cccnc2)cc1,4.44%
8,CCCn1c(SCC(=O)NCc2ccc3c(c2)OCO3)n[nH]c1=O,-2.27%
9,Cc1cc(C)n(C(=O)CNC(=O)/C=C/c2ccccc2)n1,16.6%
10,CCC(C)N(C)C1CCN(C(=S)Nc2ccc(OC)cc2)CC1 (stereo not drawn),11.6%
11,CCOCCCNc1nc2nc3ccc(C)cn3c(=O)c2cc1C(=O)NCC1CCCO1 (stereo not drawn),-77.7%
12,CCn1nnnc1NCc1ccc(Cl)cc1,9.44%
13,CCN(CC)CCNC(=O)CCc1c(C)nc2c(c(C)nn2-c2ccc(C)cc2)c1C,-55.4%
14,CCCCn1c(N)c(N(CCC(C)C)C(=O)COC(=O)c2cccnc2Cl)c(=O)[nH]c1=O,14.5%
15,O=C(NCc1ccccc1)c1ccc2c(c1)C(=O)N(Cc1ccncc1)C2=O,-34.6%
16,COc1ccc(CCNC(=O)CSc2nnc(CNc3ccc(Cl)cc3)o2)cc1OC,-16.8%
17,O=C1c2ccccc2NC(c2ccccc2O)N1c1ccc(F)cc1 (stereo not drawn),5.56%
18,COc1ccccc1-c1nc(-c2ccc(Br)o2)no1,12.9%
19,COc1ccc(N2C(=O)[C@@H]3[C@H](C2=O)[C@H]2C=CC=NN2[C@@H]3C(=O)Nc2ccc(Cl)cc2)cc1,-32.4%
20,CCOC(=O)c1cccc(NC(=O)c2ccc(F)cc2F)c1,-16.1%
21,N#CCC(=O)N/N=C/c1cn(Cc2cccc3ccccc23)c2ccccc12,1.77%
22,Cc1ccc2c(c1)C1CN(C)CCC1N2S(=O)(=O)c1ccc(C(C)C)cc1 (stereo not drawn),-73.4%

row,Compound,"hERG current change (%, negative = inhibition) at 10uM"
1,Oc1c(C(c2ccccn2)N2CCCCC2)cc(Cl)c2cccnc12 (stereo not drawn),-9.95%
2,O=C(Nc1ccccn1)c1ccc2nc(-c3ccccc3)c(-c3ccccc3)nc2c1,6.84%
3,O=C(Oc1ccc(Br)cc1C(=S)N1CCCCC1)c1cc([N+](=O)[O-])cc([N+](=O)[O-])c1,15%
4,Cc1nc(-c2ccc(-c3ccon3)s2)no1,15.1%
5,C=CCOc1ccc(/C=C/C(=O)Nc2ccc(C(=O)NC)cc2)cc1,-8.15%
6,CCN(CC(=O)Nc1c(F)cccc1F)C(=O)C1CCN(S(=O)(=O)c2ccc(C)c(C)c2)CC1,-1.77%
7,Cc1ccccc1Cn1c2ccccc2c2cnn(CC(=O)NCCCN3CCN(C)CC3)c(=O)c21,-3.23%
8,CCC(C)C(NC(=O)C(CC(C)C)NC(=O)C(CO)NC(=O)C1CCC(=O)N1)C(=O)OC (stereo not drawn) ([pGlu]SLI-OMe; configuration not given here),5.46%
9,COc1ccc(CC(C)NS(=O)(=O)c2ccc3c(c2)CCN3S(C)(=O)=O)cc1OC (stereo not drawn),-23.4%
10,CC(/C=C/c1ccco1)=N\NC(=O)CNc1ccc2ccccc2c1,1.9%
11,CCc1ccc(N2CC(C(=O)N/N=C/c3cc([N+](=O)[O-])ccc3O)CC2=O)cc1 (stereo not drawn),-28.7%
12,COc1cc(NC(=O)C2CC2)c(OC)cc1NC(=O)c1ccco1,13.1%
13,O=S(=O)(Nc1cccc2ccccc12)c1ccccc1F,16.5%
14,Cn1c(=O)c2c(nc(N3CCCCCC3)n2CC(=O)c2ccc(Br)cc2)n(C)c1=O,2.9%
15,C=CCn1c(C)cc(C(=O)COC(=O)CNC(=O)c2ccccc2)c1C,-1.25%
16,Cn1ncc(Br)c1C(=O)N/N=C/c1ccc(OS(=O)(=O)c2ccccc2)cc1,-7.68%
17,CSCC[C@H](NC(=O)OC(C)(C)C)C(=O)N/N=C/c1cccc2nccnc12,-0.945%
18,CC(NC(=O)c1ccco1)C(=O)N1CCN(c2ccccc2)CC1 (stereo not drawn),22%
19,COc1ccc(C(=O)OCC(=O)N2CCCCC2)cc1[N+](=O)[O-],-1.01%
20,COc1ccc(Nc2nc(N3CCN(S(C)(=O)=O)CC3)nc3ccccc23)c(OC)c1,-22.7%
21,CN1C(C(=O)NCc2ccco2)=CC(c2ccc(F)cc2)=NS1(=O)=O,-34.2%
22,c1ccc(-c2cn3c(n2)SCC3)cc1,-1.31%

row,Compound,"hERG current change (%, negative = inhibition) at 10uM"
1,CCOC(=O)N1CCN(c2cc(=O)n(C3CCCCC3)c(=O)[nH]2)CC1,-2.42%
2,Fc1ccccc1N=C1NN=C(c2ccccc2)CS1,23.2%
3,Cc1ccc(-n2c(C)cc(C(=O)CSc3n[nH]c(N)n3)c2C)cc1,5%
4,CC1CCCN(C(=O)COC(=O)Cc2ccc(Cl)cc2)C1 (stereo not drawn),12.6%
5,Nc1cc(Cl)ccc1N1CCOCC1,-1.57%
6,Cc1ccc(C(=O)C2=C(O)C(=O)N(c3ncccn3)C2c2ccc(F)cc2)o1 (stereo not drawn),25.6%
7,Cl.O=C(CN1C2=NCCN2c2ccccc21)N1CCOCC1,9.79%
8,COc1ccc(NC(=O)CN2CCN(Cc3ccc4c(c3)OCO4)CC2)cc1OC.O=C(O)C(=O)O,-17.4%
9,COCCCN1CN(Cc2ccccc2)CNC1=S,5.46%
10,COc1ccc(CN2CC(C(=O)NCCCN3CCN(C)CC3)CC2=O)cc1 (stereo not drawn),3.03%
11,Cc1ccccc1-n1c(SCC(=O)Nc2cccc3ccccc23)nc(O)cc1=O,15.4%
12,CCc1ccc(NC(=S)N2CCN(c3cccc(OC)c3)CC2)cc1,17.4%
13,CC1(C)COC2(OC1)C(=O)Nc1ccccc12,26.6%
14,CCN1c2ccccc2-c2nc3ccccc3n2C1c1ccccn1 (stereo not drawn),-37.9%
15,CC(=O)C1=C(C)NC(SCc2cccc([N+](=O)[O-])c2)=C(C#N)C1c1ccco1 (stereo not drawn),-19.6%
16,COc1ccc(C(=O)N/C(=C\c2ccc3c(c2)OCO3)C(=O)N2CCOCC2)cc1,19.6%
17,O=C1CS(=O)CN1c1ccc(Oc2ccccc2)cc1 (stereo not drawn),-6.64%
18,O=C(Nn1c(-c2ccc(Br)cc2)nc2ccccc2c1=O)c1ccncc1,20.2%
19,COC(=O)C1=C(c2ccc(OC)c(OC)c2)C[C@@H]2CC[C@H]1N2C(=O)NC(C)C,19.6%
20,Cc1cccn2c(=O)nc(SCC(=O)NC3CCCCC3)nc12,-14.8%
21,Cn1nnc2cc(NC(=O)NCc3ccc4c(c3)OCO4)ccc21,11%
22,CC1(C)Cc2c(sc(NC(=O)c3ccccc3)c2C(=O)O)CO1,19.5%

row,Compound,"hERG current change (%, negative = inhibition) at 10uM"
1,O=C(NCc1cccnc1)C1CC2c3ccccc3C1c1ccccc12 (stereo not drawn),-5.76%
2,Clc1ccc(CSc2nncn2-c2ccccn2)cc1,-28.7%
3,CCn1c(NC(C)=O)c(-c2ccccc2Cl)c(=O)c2ccccc21,24.5%
4,COc1ccc(/C=N/NC(=O)c2ccc(Cl)cc2)cc1COC(C)=O,-6.17%
5,COc1cc(C(=O)OCC2CC(c3ccccc3)=NO2)cc(OC)c1OC (stereo not drawn),-41.8%
6,CCOc1ccc(NC(=O)CCN2CCN(S(=O)(=O)c3ccc(Cl)cc3)CC2)cc1,-26.7%
7,CC(=O)c1c(C)nc(-c2ccc(Cl)cc2)nc1N,0.695%
8,O=C(COc1ccccc1F)Nc1ccccc1C(=O)NC1CC1,-32.8%
9,O=C(Nc1cccc(Cl)c1)c1ccc(-n2cncn2)c([N+](=O)[O-])c1,-35%
10,CCCCS(=O)(=O)N1CCCC(C(=O)Oc2ccccc2OC)C1 (stereo not drawn),13.1%
11,Cc1ccccc1-c1nc(-c2ccc(NC(=O)c3ccc(Br)o3)cc2)no1,3.28%
12,CC(=O)N1N=C(c2ccco2)CC1c1cc2ccc(C)cc2nc1Cl (stereo not drawn),12.2%
13,COc1nc2ccccc2nc1CCC(=O)O,17.9%
14,CCN1C(=O)N(CC)c2cccc3cccc1c23,9.55%
15,COc1ccc(NC(=O)CN2C(=O)NC(C)(C3CC3)C2=O)cc1S(=O)(=O)N1CCOCC1 (stereo not drawn),18.2%
16,COc1ccccc1CNC(=O)CN1CCC(NC(=O)c2ccccc2F)CC1.Cl,-14.5%
17,O=C1NC(=O)N(Cc2ccccc2)C1=O,26.4%
18,Cc1cc2oc(C(=O)NCCc3ccc(S(N)(=O)=O)cc3)cc(=O)c2cc1C,17.2%
19,COc1ccc(NC(=O)C2C3C=CC4(O3)C2C(=O)N(CCN2CCCCC2C)C4C(=O)NC2CCCCC2)cc1 (stereo not drawn),9.93%
20,O=C(Cc1cccs1)Nc1ccccc1-c1nc2ccccc2[nH]1,19.7%
21,C[C@H](NS(=O)(=O)c1ccc2c(c1)OCCCO2)C(=O)N1CCN(Cc2ccc(C#N)cc2)CC1,-61.1%

# Reference: paper PMC4336329 (PLoS ONE, 2015)
